In all, about 410,000 compounds went through this assay and about 6,400 (1.6%) were called active. Inconclusive means that the source gave no clear call. Such entries were picked first, then a sample of the others. Calls follow the shape of the dose curve; as a rule, active = well fitted inhibition curve with a large enough effect; inconclusive = small, poorly fitted or top-dose-only effect; inactive = no such curve, though single readings can be large or run the other way. No potency is given beside an inconclusive call; the fits are too rough.
biological target: Glucagon-like peptide 1 receptor (Homo sapiens) (UniProt P43220); assay: qHTS of GLP-1 Receptor Inverse Agonists (Inhibition Mode); conditions: HEK293 GLP-1R CRE-luciferase, luminescence, 24 h, GLP-1R form is constitutively active; activity change, negative = inhibition: at 38.3 µM (top of the series) unless noted; also: nearly all actives have a fitted effect of over 55% in size
How it was run: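 Constitutively active GLP-1R drives a cAMP-responsive luciferase in stably transfected HEK293 cells; test compounds are added after overnight (12 h) attachment and left 24 hr, and signal loss in luminescence marks inhibition.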
% is scaled to controls: 0 for no effect and ±100 for the full control effect; potency is read from the fitted curve at half-maximal effect; tags tell the direction and shape of the fitted curve.

UniProt P43220, sequence (P43220 whole entry, looked up): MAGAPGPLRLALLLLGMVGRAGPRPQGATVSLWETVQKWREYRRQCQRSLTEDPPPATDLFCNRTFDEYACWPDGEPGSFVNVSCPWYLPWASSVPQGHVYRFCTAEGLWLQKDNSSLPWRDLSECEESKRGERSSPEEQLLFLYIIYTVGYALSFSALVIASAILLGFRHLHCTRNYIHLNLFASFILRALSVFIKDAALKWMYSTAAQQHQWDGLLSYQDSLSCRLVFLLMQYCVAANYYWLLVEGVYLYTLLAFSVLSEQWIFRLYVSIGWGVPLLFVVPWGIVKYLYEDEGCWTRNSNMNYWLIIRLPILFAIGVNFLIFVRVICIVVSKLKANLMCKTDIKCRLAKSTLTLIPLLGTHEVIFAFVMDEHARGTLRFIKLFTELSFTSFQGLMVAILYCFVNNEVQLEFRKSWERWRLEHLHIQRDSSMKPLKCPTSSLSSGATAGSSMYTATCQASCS

Row | Structure (SMILES) | Potency | activity change, negative = inhibition
1 | O=C(Nc1ccc(Cc2ccc(NC(=O)C3CC3)c(O)c2)cc1O)C1CC1 | inconclusive [inhibitor, partial curve, poor fit] | –
2 | Cc1oc2ccc(O)c(CN3CCCC3)c2c1C(=O)Nc1ccc(C(C)C)cc1 | inconclusive [inhibitor, single point] | –
3 | CN1CCN(c2ccc(C(=O)NC3CCCCC3)cc2[N+](=O)[O-])CC1 | inconclusive [inhibitor, partial curve] | –
4 | CCCn1c(CNc2ccc(Br)cc2)nc2ccccc21 | inconclusive [inhibitor, single point] | –
5 | COc1ccc(-c2cc(-c3ccc(C)cc3)n[nH]2)c(O)c1 | inconclusive [inhibitor, single point] | –
6 | C#CCOc1ccc(-c2nnc(Nc3ccc(NC(C)=O)cc3)c3ccccc23)cc1 | inconclusive [inhibitor, single point] | –
7 | C=CCc1cc(/C=N\NC(=O)CSc2nnc(CCCc3ccc(OC)c(C)c3)o2)cc(OC)c1O | inconclusive [inhibitor, single point] | –
8 | CN1CCN(c2ccc(Cl)cc2NC(=O)c2ccc(S(=O)(=O)N(C)C)cc2)CC1 | inconclusive [inhibitor, partial curve, poor fit] | –
9 | O=C(NCc1ccc2c(c1)OCO2)c1c[nH]c2ccc(S(=O)(=O)N3CCOCC3)cc2c1=O | – | inactive: -3.98%
10 | Cc1ccc(-c2nnn(CC(=O)N(c3ccccc3F)C(C(=O)NCC3CCCO3)c3c[nH]c4ccccc34)n2)cc1 (stereo not given) | inconclusive [inhibitor, partial curve, poor fit] | –
11 | Cc1ccc2c(c1)-c1c(cnc3cc(-c4ccc(F)cc4)nn13)CO2 | – | inactive: 5.04%
12 | COc1ccccc1NC(=O)c1ccc(COc2ccccc2Br)o1 | inconclusive [inhibitor, single point] | –
13 | CCCCOc1cccc(C(=O)Nc2cc(NC(=O)c3ccco3)ccc2OC)c1 | inconclusive [inhibitor, single point] | –
14 | Cc1ccc(NC(=O)COC(=O)c2c(C)nn(-c3ccccc3)c2C)cc1 | inconclusive [inhibitor, single point] | –
15 | CCN1C(=O)[C@H]2[C@@H](c3ccc(-c4cccc(Cl)c4)cc3)N[C@@](CC(C)C)(C(=O)OC)[C@H]2C1=O | – | inactive: -14.1%
16 | OC(COc1ccc2ccccc2c1Cl)CN1CCOCC1 (stereo not given) | inconclusive [inhibitor, single point] | –
17 | CN(C)S(=O)(=O)c1cccc(C(=O)Nc2ccc3c(c2)CCC3)c1 | inconclusive [inhibitor, single point] | –
18 | Cc1ccc(Cc2cc(-c3ccc(C)cc3)n[nH]c2=O)cc1 | inconclusive [inhibitor, single point] | –
19 | CCOC(=O)COc1ccc(C2NC(C(=O)O)CS2)cc1 (stereo not given) | – | inactive: 19.5%
20 | CCCOc1ccc(CSC(=N)N)cc1C(=O)OC | inconclusive [inhibitor, partial curve, poor fit] | –

Row | Structure (SMILES) | Potency | activity change, negative = inhibition
21 | Cc1cc(NC(=O)Nc2cccc(Cl)c2)n(-c2ccccc2)n1 | inconclusive [inhibitor, single point] | –
22 | COCCOc1ccc(C(F)(F)F)cc1NC(=O)CN1C(=O)NC(C)(c2ccc3c(c2)OCO3)C1=O (stereo not given) | inconclusive [inhibitor, single point] | –
23 | CN(Cc1c(C(=O)N/N=C/c2ccccc2O)nnn1-c1nonc1N)C1CCCCC1 | inconclusive [inhibitor, partial curve, poor fit] | –
24 | O=C(CC1S/C(=N/N=C2CCCCCC2)NC1=O)Nc1ccccc1F (stereo not given) | – | inactive: 5.86%
25 | Oc1ccc(Nc2nc(NCC3CCCO3)c3ccccc3n2)cc1 (stereo not given) | inconclusive [inhibitor, partial curve, poor fit] | –
26 | COc1cccc2c1ncc1c(-c3ccc(C)cc3)nn(-c3ccc(F)cc3)c12 | – | inactive: 2.32%
27 | CCc1ccc([C@H]2C(C(=O)O)=C[C@@H](CC3CCCC3)N2S(=O)(=O)c2ccc(C)cc2)cc1 | inconclusive [inhibitor, single point] | –
28 | CCCOc1ccc(/C=N/NC(=S)Nc2ccccc2[N+](=O)[O-])c(O)c1 | inconclusive [inhibitor, full curve, poor fit] | –
29 | COc1cccc(-c2cc3nc4c(c(NCC(C)(C)CN(C)C)n3n2)CCCC4)c1 | inconclusive [inhibitor, partial curve, poor fit] | –
30 | CC(C)COc1ccc(C(=O)N2CCCCC2CCN2CCCCC2)cc1 (stereo not given) | inconclusive [inhibitor, single point] | –
31 | CCCCn1c(N)c(N(CC(C)C)C(=O)C2CCCN(C(=O)c3ccc(Cl)cc3)C2)c(=O)[nH]c1=O (stereo not given) | – | inactive: 31%
32 | CCOc1ccc(/C=N/n2c(C)nc3ccccc3c2=O)cc1 | – | inactive: 12.7%
33 | c1ccc2c(c1)OCC(c1nnc3sc(-c4cnccn4)nn13)O2 (stereo not given) | – | inactive: 0%
34 | Cc1cc(C(O)c2ncc(-c3cccc4ccccc34)[nH]2)ccc1F (stereo not given) | inconclusive [inhibitor, single point] | –
35 | COc1ccccc1-c1cnc(C(O)c2ccc(Cl)c(F)c2)[nH]1 (stereo not given) | inconclusive [inhibitor, single point] | –
36 | Cc1c(C(=O)OCC(=O)c2ccc3c(c2)OCCO3)oc2ccccc12 | inconclusive [inhibitor, partial curve, poor fit] | –
37 | O=C(Nc1nc(-c2cccs2)cs1)C1=COCCO1 | – | inactive: 21.5%
38 | COc1ccc2c(c1)CC(C(=O)NCCCN1CCN(c3cccc(Cl)c3)CC1)CO2 (stereo not given) | inconclusive [inhibitor, partial curve, poor fit] | –
39 | c1ccc(COc2cccc(-c3cc4nc(NCc5ccc6c(c5)OCO6)ccn4n3)c2)cc1 | inconclusive [inhibitor, single point] | –
40 | Cc1ccccc1C(=O)N1c2ccccc2OCC1C(C)(C)C (stereo not given) | inconclusive [inhibitor, partial curve, poor fit] | –

From PubChem BioAssay AID624417 (National Center for Advancing Translational Sciences (NCATS), 2012)
